Data: the supplement of paper PMC3334620
Over roughly 33,000 sequences, “E-score (-0.5 to 0.5)” has its median near -0.016; the highest 2% begin near 0.31. The list shows a part of the results.

Biological target: Cst6 (UniProt P40535)
Assay: PBM E-score (8-mer binding enrichment) (E-score (-0.5 to 0.5)); higher = stronger / more preferred TF binding; most listed sequences are background and not binding sites
Details: protein concentration: 200 nM; construct: GST-DNA-binding domain
Outline: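 PURExpress in vitro transcription/translation supplied GST-tagged yeast transcription factors, either full-length or DNA-binding domain. Applied at about 100-200 nM to universal all-10-mer Agilent arrays double-stranded by primer extension, the bound protein was detected with fluorescent anti-GST. E-scores, modified Wilcoxon-Mann-Whitney statistics, were given by the Universal PBM Analysis Suite to ungapped eight-base words pooled with their reverse complements after masliner normalisation.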

Point of comparison: AGAAAATC, “PBM E-score” value 0.233. Against it:
- AAGTGACC — lower, -0.131
- CGAAGGCA — lower, -0.0818
- AAGGACGT — lower, 0.0462
- TATGGGGA — lower, -0.0452
- ACATGCCG — lower, 0.209
- TAGCGCTA — lower, -0.0968
- ATCGGTAC — lower, -0.0036
- ATCATAGA — higher, 0.246
- CTATCGTC — lower, 0.0875
- CTGGCTTC — lower, -0.186
- ACGAAAAC — higher, 0.296
- AAAGTCGT — lower, -0.0296
- AAGCGGCT — higher, 0.267
- ATCCCAAC — lower, 0.0418
- CAAAACTG — lower, 0.147
- CTAGTAAA — lower, 0.221
- ACAGGCGA — lower, -0.0976
- CGACTGCC — lower, -0.221
- ATTAAACG — lower, 0.193
- ACAGCTCG — lower, -0.167
- GACCTTCA — lower, -0.112
- CGTCTGCC — lower, -0.0528
- ATTCTTGC — lower, 0.0169
- GCTCGGAC — lower, -0.296
- ACAGCAAA — lower, 0.0947
- CGTGGAAA — higher, 0.261
- AGAGCATA — lower, -0.117
- CGCAGCAC — lower, 0.03
- AATATGGG — lower, -0.119
- CTTGCTCA — lower, -0.3
- ACATACAT — lower, 0.228
- GCCGGAAC — lower, -0.0605
- ACATTTCA — lower, 0.134
- ATAGTTCA — lower, 0.108
- ATAATGCA — lower, 0.144
- AATCCCGA — lower, 0.102
- ACACCCGG — lower, -0.161
- AGTTGCAT — lower, 0.205
- AACAGGCA — lower, -0.0324
- GTCACCCA — higher, 0.274
- CTTACACA — lower, -0.0478
- CGTTTAGA — lower, 0.00057
- GAGCGCCA — lower, -0.151
- GTAGCAAC — lower, -0.0141
- CACGTTGG — lower, -0.134
- ACGGCGCG — higher, 0.381
- ACTCCATA — lower, -0.0837
- CGTCGACC — lower, -0.0375
- ATAGCCGC — lower, 0.176
- CACCGCAG — lower, -0.116
- AAGACCAG — lower, -0.283
- AACTACGC — lower, 0.0324
- GTCCACAC — lower, -0.0192
- GATATATC — lower, 0.0563
- ACTGAGTA — lower, -0.14
- CTGGAATA — lower, 0.101
- CAGCGGGA — lower, -0.109
- ACGATTTC — lower, 0.136
- AGATCGAT — lower, -0.0484
- ACACACCG — lower, -0.141
- AGTCTCTG — lower, -0.232
- ATCAAGTC — lower, 0.0221
- ACCCACAG — lower, -0.111
- CGCGAATA — lower, 0.0356
- CAGAAATC — lower, 0.0975
- CAGACGTC — lower, 0.113
- CCGTGAAC — lower, -0.153
- CGATTTTA — lower, 0.16
- AAGGTTCT — lower, 0.00233
- CCTGGTTC — lower, -0.185
- CTATGTCC — lower, -0.152
- AAGAAAAC — lower, 0.0298
- ATATCGAA — lower, 0.18
- ATACGGAC — lower, -0.0317
- ACGATCTC — lower, -0.189
- ATGCTACC — lower, -0.0641
- CGCTACAG — lower, -0.168
- AAAGCGAT — lower, 0.0977
- GGAAAAAA — lower, 0.143
- CAAGACGC — lower, -0.0744
- ATTCGATA — lower, 0.143
- GAGAAAAA — lower, 0.133
- CACCAAGG — lower, -0.176
- TCCGGTAA — lower, 0.00546
- CGTAATGC — higher, 0.365
- AATACCTA — lower, 0.071
- TCAAGAAA — lower, 0.199
- AGAAGCAT — lower, -0.0224
- GCCGCAAA — lower, 0.0342
- ACCCTAAA — lower, 0.0223
- TATTAGAA — lower, 0.224
- AGGAAAAA — lower, 0.0949
- CCCATGGG — lower, -0.0645
- GTATACTA — lower, -0.197
- ACCATGGG — lower, -0.264
- GCAGGTAC — lower, -0.338
- GGTGAGCA — lower, -0.184
- CATAGCAA — lower, 0.0986
- CTCGTAAG — higher, 0.241
- GCATGTAC — lower, 0.00158
- CGGCTGAG — lower, -0.127
- CTCCCGAG — lower, -0.36
- CGAGTGCA — lower, 0.0328
- AGCTTATC — lower, -0.0169
- GCGGTGGA — lower, -0.106
- AGGCGGAT — lower, -0.0368
- CCTTACTC — lower, 0.0253
- ATTGCGAC — lower, 0.132
- CACTTCTC — lower, -0.0949
